# In all, about 410,000 compounds went through this assay and about 850 (0.21%) were called active. The shares of active, inactive and inconclusive entries below differ from those in the screen. Calls follow the shape of the dose curve; as a rule, active = well fitted inhibition curve with a large enough effect; inconclusive = small, poorly fitted or top-dose-only effect, or another doubt; inactive = no such curve, though single readings can be large or run the other way. Potencies of inconclusive entries are left out as doubtful fits.
# Molecular target: Glutaminase kidney isoform, mitochondrial (Homo sapiens) (UniProt O94925)
# UniProt O94925, sequence (O94925 whole entry, looked up, canonical isoform): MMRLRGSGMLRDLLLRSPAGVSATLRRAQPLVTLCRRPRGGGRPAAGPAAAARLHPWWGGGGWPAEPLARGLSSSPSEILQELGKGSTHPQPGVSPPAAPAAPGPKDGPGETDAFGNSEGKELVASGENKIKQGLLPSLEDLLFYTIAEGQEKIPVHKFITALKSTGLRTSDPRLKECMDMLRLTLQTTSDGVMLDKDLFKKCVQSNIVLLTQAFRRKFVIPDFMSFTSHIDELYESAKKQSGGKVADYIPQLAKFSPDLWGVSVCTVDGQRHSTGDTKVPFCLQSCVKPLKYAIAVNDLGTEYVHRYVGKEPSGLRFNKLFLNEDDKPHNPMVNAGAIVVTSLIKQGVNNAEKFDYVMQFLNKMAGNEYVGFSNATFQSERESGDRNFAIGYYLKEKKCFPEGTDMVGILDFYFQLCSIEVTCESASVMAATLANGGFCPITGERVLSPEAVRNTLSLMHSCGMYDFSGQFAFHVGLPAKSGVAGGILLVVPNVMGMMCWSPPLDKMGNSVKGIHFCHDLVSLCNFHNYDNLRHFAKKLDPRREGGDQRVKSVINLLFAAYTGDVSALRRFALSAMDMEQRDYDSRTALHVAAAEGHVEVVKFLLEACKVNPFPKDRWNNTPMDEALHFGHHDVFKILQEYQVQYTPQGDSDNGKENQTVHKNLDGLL
# Experiment: qHTS for Inhibitors of Glutaminase (GLS)
# Details: GLS enzymatic activity, qHTS titration; series mostly up to 45.5 µM; activity change, negative = inhibition: at the top concentration
# How it was run: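 Compounds were pin-transferred onto hKGA, after which L-glutamine (1 mM solution) and a detection mix of glutamate oxidase, HRP and Amplex Red were added. Initial and 30 min RT fluorescence reads were collected.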
# % is scaled to controls: 0 for no effect and ±100 for the full control effect; potency is read from the fitted curve at half-maximal effect; tags tell the direction and shape of the fitted curve.
SMILES,"activity change, negative = inhibition",Potency
CCOc1c(O)ccc(/C=C2\SC(=S)NC2=O)c1[N+](=O)[O-],inactive: 35%,
Cc1[nH]n(-c2ncc(-c3ccccc3)s2)c(=O)c1C(c1ccc(Br)cc1)C(C#N)C#N (configuration not stated),,"inconclusive [inhibitor, single point]"
CCCOC1CCCN(C(=O)c2cc(Cl)c(Cl)cc2C(=O)O)C1 (configuration not stated),,"inconclusive [inhibitor, single point]"
Nc1cc(C(F)(F)F)ccc1N1CCOCC1,,"inconclusive [inhibitor, partial curve]"
Cc1cc2nc(-c3cccc(Br)c3)c(Cc3ccccc3)n2c(C)c1Br,,"inconclusive [inhibitor, single point]"
Cc1cc(C)c(NC(=O)c2c(C)nn(-c3ccc(F)cc3)c2-n2cccc2)c(C)c1,inactive: -12.3%,
Cc1cccc(-n2c(-c3csc(C(C)C)c3)n[nH]c2=S)c1,,"inconclusive [inhibitor, partial curve, poor fit]"
Cc1ccc(Nc2nc3ccccc3o2)cc1F,,"inconclusive [inhibitor, single point]"
COc1ccc(CCNC(=O)CCc2nc3sc4c(c3c(=O)[nH]2)CCCC4)cc1,inactive: -9.07%,
COc1ccccc1N1CC(C(=O)OCC(=O)Nc2cc(C)on2)CC1=O (configuration not stated),,"inconclusive [inhibitor, partial curve, poor fit]"
COc1cc(/C=C/C(=O)OCC(=O)N2CCC(C)CC2)ccc1O,,"inconclusive [inhibitor, partial curve]"
CNC(=O)c1c(NC(=O)c2ccc(S(=O)(=O)N(C)c3ccccc3)cc2)sc2c1CCN(C(C)C)C2,,"inconclusive [inhibitor, single point]"
COC(=O)c1ccc2c(=O)n(CCCCCC(=O)N3CCN(c4ccc(Cl)cc4)CC3)c(=O)[nH]c2c1,,"inconclusive [inhibitor, single point]"
CC1=Nc2ncnn2C(c2ccccc2)/C1=N\O (configuration not stated),,"inconclusive [inhibitor, single point]"
Cc1cc(NC(=O)CC2Oc3ccccc3NC2=O)ccc1Br (configuration not stated),,"inconclusive [inhibitor, single point]"
O=[N+]([O-])c1cc2c(c(CSc3nnnn3-c3ccc(O)cc3)c1)OCOC2,,"inconclusive [inhibitor, partial curve]"
CCOc1cccc(-c2cc(C(=O)NN)[nH]n2)c1,,"inconclusive [inhibitor, single point]"
O=C1NN(c2ccccc2)C(=O)/C1=C/c1ccc(Sc2ccc(Cl)cc2)o1,inactive: -19.2%,
CC[C@]12C(=O)N(C)C[C@H]([C@@H]3C(=O)N(C)C(=O)[C@@H]31)N2C(=O)c1ccc(Cl)c(Cl)c1,inactive: -9.72%,
CNC(=O)C(N)CSC(C)C1=C(C)c2cc3[n-]c(cc4nc(cc5[n-]c(cc1n2)c(C)c5CCC(=O)O)C(CCC(=O)O)=C4C)c(C)c3C(C)SCC(N)C(=O)NC.[Fe+2] (configuration not stated),inactive: -5.81%,
Cc1ccc(N(C(=O)C(F)(F)F)C(C(=O)NC2CCCCC2)c2ccncc2)cc1C (configuration not stated),,"inconclusive [inhibitor, single point]"
O=C(Cn1c(O)c(/C=C2\C=Nc3ccc(Br)cc32)sc1=O)N1CCCC1,inactive: 7.41%,
O=C(O)c1cccc(N/N=C/c2cccc3ccccc23)c1,,"inconclusive [inhibitor, single point]"

SMILES,"activity change, negative = inhibition",Potency
Cc1cc(C(=O)OCC(=O)NC(C)C)c2ccccc2n1,,"inconclusive [inhibitor, single point]"
Cc1ccc(NS(=O)(=O)c2cccc(C(=O)NCC(c3ccc(F)cc3)N3CCOCC3)c2)cc1 (configuration not stated),,"inconclusive [inhibitor, single point]"
COC(=O)c1ccc2nc(-c3ccco3)c(Cc3ccc(OC)cc3C)n2c1,,"inconclusive [inhibitor, single point]"
O=C(CCSc1nc(-c2ccc3c(c2)OCO3)cc(C(F)(F)F)n1)NCc1ccco1,inactive: 1.18%,
Cc1nn(Cc2ccccc2)c(C)c1CCC(=O)O,inactive: 21.5%,
COc1ccc(C(=O)NC(=S)NCc2ccccc2)cc1OC,inactive: -0.0186%,
O=C(O)c1ccc2c(c1)C(=O)N(CCCCCCCN1C(=O)c3ccc(C(=O)O)cc3C1=O)C2=O,,"inconclusive [inhibitor, single point]"
COCCNc1c(-c2ccc(OC)cc2)nc2ccc(Cl)cn12,,"inconclusive [inhibitor, partial curve, poor fit]"
CN(CC(=O)NCCc1ccc(S(N)(=O)=O)cc1)Cc1ccc(Cl)cc1Cl,,"inconclusive [inhibitor, partial curve, poor fit]"
COc1ccc(OC(C)C(=O)N2CC(C)OC(C)C2)cc1 (configuration not stated),,"inconclusive [inhibitor, single point]"
O=C(Oc1ccc2c(c1)OCO2)C12CC3CC(CC(C3)C1)C2,inactive: -7.17%,
O=C(CCc1ccccc1)Nc1sc2c(c1C(=O)O)CCCC2,inactive: 3.67%,
CC(=O)OCC1=C(C(=O)O)N2C(=O)[C@@H](NC(=O)CSc3ccncc3)[C@H]2SC1,,active: 17.8 µM
O=C(N/N=C/c1ccc(N2CCOCC2)cc1)c1ccccc1OCCOc1ccccc1,,"inconclusive [inhibitor, single point]"
COc1ccc2[nH]c(=S)[nH]c2c1,inactive: -3.15%,
COc1ccc(NC(=O)CC2SC(N3CCOCC3)=NC2=O)c(OC)c1 (configuration not stated),,"inconclusive [inhibitor, single point]"
COc1ccc(C(=O)N2CCN(CCc3ccccc3)CC2)cc1[N+](=O)[O-],inactive: -2.96%,
Cc1nnc2sc(-c3ccc(NC(=O)c4ccc(-c5ccc(Cl)cc5Cl)o4)cc3)nn12,,"inconclusive [inhibitor, partial curve]"
CCn1nc(-c2ccccc2)c2nc3ccccc3nc21,inactive: 6.75%,
CCN1CCN(c2cc(C)c3cc(NC(=S)N4CCCC(C)C4)ccc3n2)CC1 (configuration not stated),,"inconclusive [inhibitor, single point]"
Oc1ccc(F)c2cccnc12,,"inconclusive [inhibitor, partial curve]"
Nc1ccc(N2CCN(c3ccccc3)CC2)c(F)c1,,"inconclusive [inhibitor, partial curve, poor fit]"
COc1cc(C(=O)N/N=C/c2ccccn2)cc(OC)c1OC,,"inconclusive [inhibitor, single point]"

SMILES,"activity change, negative = inhibition",Potency
COc1cc(/C=C2/C(=O)NN(c3cccc(F)c3)C2=O)ccc1OC(=O)c1ccco1,,"inconclusive [inhibitor, single point]"
Cc1ccc(NC(=S)NNC(=O)Nc2ccccc2)cc1,,"inconclusive [inhibitor, single point]"
O=C(Nc1ccccc1N1CCOCC1)C1=NN(c2ccccc2)C(=O)CC1,,"inconclusive [inhibitor, single point]"
ClCC1=Nc2ccccc2Cc2ccccc21,,"inconclusive [inhibitor, single point]"
Cc1cc2ccccn2c1C(=O)c1nc(N2CCOCC2)ncc1Cl,inactive: -1.64%,
Cc1cc(SCc2ccc(F)cc2)nc(=O)[nH]1,inactive: -3.87%,
S=C(Nc1ccc(Cl)cc1)NC1CCCCC1,inactive: -5.49%,
O=C(c1cnccn1)N1CCc2ccccc21,,"inconclusive [inhibitor, partial curve, poor fit]"
COc1ccc(OC)c(C(=O)Nc2c(O)ccc3ccccc23)c1,,"inconclusive [inhibitor, partial curve]"
COCCCN(C(=O)c1cc(-c2ccco2)nc2ccccc12)c1c(N)n(Cc2ccccc2)c(=O)[nH]c1=O,,"inconclusive [inhibitor, partial curve, poor fit]"
Cc1ccc(-c2cn3c(n2)sc2cc(C(=O)NCCCN4CCCCC4)ccc23)cc1,,"inconclusive [inhibitor, single point]"
Oc1ccc(-c2csc(Nc3ncccn3)n2)cc1O,,"inconclusive [inhibitor, full curve]"
C#CCOCCOCCOCCNc1nc(N2CCN(C(=O)CCCCCCCCCCNC(=O)[C@H]([C@@H](C)CC)n3cc(CCCCN=C(N)N)nn3)CC2)nc(N2CCN(C(=O)CCCCCCCCCCNC(=O)[C@H](CO)n3cc(CCCSC)nn3)CC2)n1,,"inconclusive [inhibitor, partial curve]"
O=C1NC(c2cccc3ccccc23)Nc2ccccc21 (configuration not stated),,"inconclusive [inhibitor, single point]"
O=C1c2ccccc2C(=O)c2[nH]cnc21,inactive: -3.33%,
Oc1ccc2c(c1)OCC1(O)Cc3cc(O)c(O)cc3C21 (configuration not stated),,"inconclusive [inhibitor, single point]"
COc1ccccc1CNC(=O)COc1ccc(S(=O)(=O)N2CCOCC2)cc1C,,"inconclusive [inhibitor, single point]"
CCOC(=O)c1nn(-c2ccccc2)c(=O)cc1OCC(=O)Nc1cc(C)ccc1OC,,active: 7.94 µM
O=C(O)c1ccccc1/C=N/n1c(C2CCCCC2)n[nH]c1=S,,"inconclusive [inhibitor, single point]"
O=C(O)C1C2C=CC(C2)C1C(=O)NCc1ccoc1 (configuration not stated),,"inconclusive [inhibitor, partial curve]"
Cc1ccc(C(C)C)c(OCC(=O)NS(=O)(=O)c2ccc(Cl)cc2)c1,,"inconclusive [inhibitor, single point]"

# — PubChem BioAssay AID624170 (National Center for Advancing Translational Sciences (NCATS), 2012)
